Each structure is given as a SMILES string. Screen size: about 110,000 compounds; about 230 (0.21%) showed an effect of 50% or more. The list shows a part of the results.
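Note: 30 min substrate incubation versus DMSO and 10 µM JCP410 controls.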

In this test the target is DPAP1 (Plasmodium falciparum, UniProt Q8IIJ9). The test is described as follows: primary screen, percent inhibition; read by cleavage of a fluorogenic dipeptide substrate; higher = more effect of the substance. The arrangement: species or system P. falciparum D10 trophozoite lysates; single well.
DPAP1, sequence (Q8IIJ9 whole entry, looked up): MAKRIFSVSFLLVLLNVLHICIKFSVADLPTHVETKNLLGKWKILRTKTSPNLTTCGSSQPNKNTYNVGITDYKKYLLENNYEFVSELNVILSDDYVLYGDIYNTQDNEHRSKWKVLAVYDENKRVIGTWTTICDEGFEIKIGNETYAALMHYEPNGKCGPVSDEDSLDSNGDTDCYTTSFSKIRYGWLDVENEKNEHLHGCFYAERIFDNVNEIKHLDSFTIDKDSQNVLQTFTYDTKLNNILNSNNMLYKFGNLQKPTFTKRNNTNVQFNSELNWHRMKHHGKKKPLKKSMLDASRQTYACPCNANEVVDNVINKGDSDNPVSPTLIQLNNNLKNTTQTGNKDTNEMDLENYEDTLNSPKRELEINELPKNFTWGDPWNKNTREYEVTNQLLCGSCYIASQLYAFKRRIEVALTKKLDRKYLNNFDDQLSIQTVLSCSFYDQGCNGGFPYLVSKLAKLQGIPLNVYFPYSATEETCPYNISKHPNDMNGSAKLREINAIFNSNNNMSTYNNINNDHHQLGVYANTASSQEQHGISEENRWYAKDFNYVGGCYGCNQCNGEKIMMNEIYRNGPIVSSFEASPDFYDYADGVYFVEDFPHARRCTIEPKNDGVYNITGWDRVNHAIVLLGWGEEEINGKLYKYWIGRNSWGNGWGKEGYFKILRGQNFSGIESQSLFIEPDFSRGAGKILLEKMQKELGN
In the case of `COc1ccc(C(=O)Nc2ccc3c(c2)OCCO3)cc1Cl`, the “% Inhibition @ 10 uM” value was 0.812%. Take `O=C(c1ccco1)n1nc(-c2cccnc2)nc1NCc1cccs1`: the “% Inhibition @ 10 uM” value is listed as -6.64%. Turning to `O=C(Nc1cccc(Cl)c1)Nc1cc(Cl)cc(Cl)c1`, the “% Inhibition @ 10 uM” value is given as 4.54%. Regarding `O=C(/C=C\Nc1ccc2c(c1)OCO2)c1cccs1`, the “% Inhibition @ 10 uM” value is -1.07%. Turning to `COc1cccc(CN(C)C2CCN(C)CC2)c1`, the “% Inhibition @ 10 uM” value came to 4.67%. Regarding `CC1=NC2=C(C(=O)CC(C)(C)C2)C(c2ccccc2Cl)/C1=C(\O)OC(C)C` (stereo not shown), the “% Inhibition @ 10 uM” value is -3.6%. Regarding `N#Cc1c(-c2cccc(F)c2)cc(-c2ccccc2)nc1SCC(=O)Nc1ccc(Br)cc1`, the “% Inhibition @ 10 uM” value is listed as 7.11%. For the compound `O=C(Nc1cccc(C(F)(F)F)c1)c1cccc(C(=O)Nc2cccc(C(F)(F)F)c2)n1`, the “% Inhibition @ 10 uM” value is recorded as -4.05%.

Regarding `COc1ccc(CC(=O)Nc2ccccc2Cl)cc1`, the “% Inhibition @ 10 uM” value is -4.35%. Next, `CCn1nc(C(=O)NCc2ccccc2)c(Cl)c1Cl`: 0.343%; `COc1cc(CN2CCN(Cc3ccncc3)CC2)cc(OC)c1OC`: 3.86%; `CC(CCc1ccc(O)cc1)N(C)CCc1ccccc1` (stereo not shown): -0.0953%. Turning to `O=C(c1cccc(Br)c1)c1conc1C(=O)c1ccco1`, the “% Inhibition @ 10 uM” value is -0.132%. Turning to `Nc1ccc(C(=O)N(Cc2ccccc2)Cc2ccccc2)c(C(=O)O)c1`, the “% Inhibition @ 10 uM” value came to 0.145%. As for `CCOc1ccc(C2/C(=C(\O)OCc3ccccc3)C(C)=Nc3nnnn32)cc1` (stereo not shown), the “% Inhibition @ 10 uM” value stood at 2.93%. With `CCN(CC)c1ccc(NS(=O)(=O)c2ccc(NC(C)=O)cc2)cc1`, the “% Inhibition @ 10 uM” value is 1.37%. As for `NC1=NC(=O)CC(c2ccccc2)N1` (stereo not shown), the “% Inhibition @ 10 uM” value is 2.33%. As to `COC(=O)/C=C(\C)NC(=O)c1ccccc1Cl`, the “% Inhibition @ 10 uM” value is listed as -4.77%. For `O=C1CC(N2CCN(Cc3ccc4c(c3)OCO4)CC2)C(=O)N1c1cc(Cl)cc(Cl)c1` (stereo not shown), the “% Inhibition @ 10 uM” value is on record as -7.75%. Consider `N#CCNC(=O)C(CCc1cc(F)ccc1F)NC(=O)OCc1ccccc1` (stereo not shown), for which the “% Inhibition @ 10 uM” value is -1.82%. As to `Cc1occc1C(=O)N1CCN(C/C=C/c2ccccc2)CC1`, the “% Inhibition @ 10 uM” value was 0.389%.

Turning to `Fc1ccccc1OCCCN1CCCC1`, the “% Inhibition @ 10 uM” value was 3%.

In the case of `CCN1CCN(C2=NC(=O)/C(=C/c3cc(OC)c(OC)c(OC)c3)S2)CC1`, the “% Inhibition @ 10 uM” value was found to be 4.74%. As to `CC(/N=C/c1c(O)[nH]c2ccccc12)c1ccccc1` (stereo not shown), the “% Inhibition @ 10 uM” value was 4.74%. As for `CCc1c(C)sc(NC(=O)Nc2cccc(Cl)c2)c1C(N)=O`, the “% Inhibition @ 10 uM” value was -8.02%. For the compound `O=C1c2ccccc2C(=O)N1CCSc1nnc(SCCN2C(=O)c3ccccc3C2=O)s1`, the “% Inhibition @ 10 uM” value was 4.42%. The same measure for `COc1ccc(C)cc1S(=O)(=O)N1CCN(C(c2ccccc2)c2ccccc2)CC1`: -1.1%.

For the compound `CCCCNC(=O)CN(c1cc(Cl)cc(Cl)c1)S(=O)(=O)c1ccccc1`, the “% Inhibition @ 10 uM” value is listed as -7.31%. Next, `COc1ccc(C(=O)Nc2cccc(O)c2)cc1S(=O)(=O)N1CCOCC1`: -0.992%; `CCCCOc1ccc(C(C)NC(=O)C2CCN(S(=O)(=O)CCC)CC2)cc1` (stereo not shown): -3.58%. Regarding `O=C(NCc1ccc(F)cc1)C1CCCN(S(=O)(=O)c2c[nH]cn2)C1` (stereo not shown), the “% Inhibition @ 10 uM” value was -6.03%. Next, `CCCc1nnc(NC(=O)c2nc(S(=O)(=O)Cc3cccc(C)c3)ncc2Cl)s1`: -0.946%. In the case of `O=Cc1cn(Cc2ccc(F)cc2Cl)c2ccccc12`, the “% Inhibition @ 10 uM” value is -2.72%. Consider `COc1ccc(-c2nc3s/c(=C\c4cc(OC)c(OC)c(OC)c4)c(=O)n3n2)cc1OC`, for which the “% Inhibition @ 10 uM” value was 2.24%. As for `COc1ccc2c(c1)C(SCC(=O)NC1CC1)CC(C)(C)O2` (stereo not shown), the “% Inhibition @ 10 uM” value was -1.89%. Regarding `Nc1nc(-c2ccc(Cl)c(Cl)c2)nc2c1c(=O)oc1ccccc12`, the “% Inhibition @ 10 uM” value is recorded as 6.08%. `N=C1/C(=C\c2coc3ccccc3c2=O)C(=O)N=C2SC(CC(=O)N3CCCC3)=NN12`: the “% Inhibition @ 10 uM” value is on record as -7.65%. Turning to `CCOc1ccc(CCNC(=O)CSc2nc(C)cc(COC)c2C#N)cc1OCC`, the “% Inhibition @ 10 uM” value was -0.703%. Regarding `Clc1cccc(OCCCCCCN2CCOCC2)c1`, the “% Inhibition @ 10 uM” value is listed as 0.815%. For `O=C(CN(C1CCCCC1)S(=O)(=O)c1ccccc1)Nc1cccc2ccccc12`, the “% Inhibition @ 10 uM” value is recorded as -1.84%.

Take `Cc1ccc(CN2CC34C=CC(O3)C(C(=O)NCc3ccc5c(c3)OCO5)C4C2=O)cc1` (stereo not shown): the “% Inhibition @ 10 uM” value was determined as 4.06%. `CCOc1ccc(C(=O)CCN(C)CC(=O)O)cc1`: the “% Inhibition @ 10 uM” value came out at 89.9%. As to `O=C(NC1(C(F)(F)F)NC(=O)N(c2ccc(Cl)cc2)C1=O)c1ccccc1F` (stereo not shown), the “% Inhibition @ 10 uM” value was -12.1%. The same measure for `O=C(NCCCN1CCc2ccccc2C1)C1=Cc2sc3c(c2CS1)CCCC3`: 10.2%; for `COc1cccc(/C=C/c2nc(C#N)c(N3CCC(C)CC3)o2)c1`: -2.57%; for `CC1CCN(C(=O)CN2C(=O)c3cccc4cccc2c34)CC1`: -3.84%. In the case of `O=C(O)/C(=C/c1cnc2ccccc2c1)NC(=O)c1ccccc1`, the “% Inhibition @ 10 uM” value was -13.5%. With `Cc1cccc(NS(=O)(=O)c2cc(Cl)ccc2Cl)n1`, the “% Inhibition @ 10 uM” value is on record as -9.24%. Turning to `NC(=O)c1ccc(N2CCOCC2)nc1`, the “% Inhibition @ 10 uM” value was 4.31%.

Source of the values: publication PMC6919601, “Identification of Plasmodium dipeptidyl aminopeptidase allosteric inhibitors by high throughput screening” (PLoS ONE, 2019).
